Data on 56 molecules can be found in publication PMC4336329 (PLoS ONE, 2015).

Screen size: about 310,000 compounds; about 2,200 (0.71%) showed an effect of 50% or more. Effects have a minus sign here. The list shows a part of the results.

The target of this experiment is human ether-à-go-go-related gene (hERG) potassium channel (human, UniProt Q12809). Nature of the experiment: primary screen, population patch clamp on CHO cells stably expressing hERG.
Sequence of human ether-à-go-go-related gene (hERG) potassium channel (Q12809 whole entry, looked up): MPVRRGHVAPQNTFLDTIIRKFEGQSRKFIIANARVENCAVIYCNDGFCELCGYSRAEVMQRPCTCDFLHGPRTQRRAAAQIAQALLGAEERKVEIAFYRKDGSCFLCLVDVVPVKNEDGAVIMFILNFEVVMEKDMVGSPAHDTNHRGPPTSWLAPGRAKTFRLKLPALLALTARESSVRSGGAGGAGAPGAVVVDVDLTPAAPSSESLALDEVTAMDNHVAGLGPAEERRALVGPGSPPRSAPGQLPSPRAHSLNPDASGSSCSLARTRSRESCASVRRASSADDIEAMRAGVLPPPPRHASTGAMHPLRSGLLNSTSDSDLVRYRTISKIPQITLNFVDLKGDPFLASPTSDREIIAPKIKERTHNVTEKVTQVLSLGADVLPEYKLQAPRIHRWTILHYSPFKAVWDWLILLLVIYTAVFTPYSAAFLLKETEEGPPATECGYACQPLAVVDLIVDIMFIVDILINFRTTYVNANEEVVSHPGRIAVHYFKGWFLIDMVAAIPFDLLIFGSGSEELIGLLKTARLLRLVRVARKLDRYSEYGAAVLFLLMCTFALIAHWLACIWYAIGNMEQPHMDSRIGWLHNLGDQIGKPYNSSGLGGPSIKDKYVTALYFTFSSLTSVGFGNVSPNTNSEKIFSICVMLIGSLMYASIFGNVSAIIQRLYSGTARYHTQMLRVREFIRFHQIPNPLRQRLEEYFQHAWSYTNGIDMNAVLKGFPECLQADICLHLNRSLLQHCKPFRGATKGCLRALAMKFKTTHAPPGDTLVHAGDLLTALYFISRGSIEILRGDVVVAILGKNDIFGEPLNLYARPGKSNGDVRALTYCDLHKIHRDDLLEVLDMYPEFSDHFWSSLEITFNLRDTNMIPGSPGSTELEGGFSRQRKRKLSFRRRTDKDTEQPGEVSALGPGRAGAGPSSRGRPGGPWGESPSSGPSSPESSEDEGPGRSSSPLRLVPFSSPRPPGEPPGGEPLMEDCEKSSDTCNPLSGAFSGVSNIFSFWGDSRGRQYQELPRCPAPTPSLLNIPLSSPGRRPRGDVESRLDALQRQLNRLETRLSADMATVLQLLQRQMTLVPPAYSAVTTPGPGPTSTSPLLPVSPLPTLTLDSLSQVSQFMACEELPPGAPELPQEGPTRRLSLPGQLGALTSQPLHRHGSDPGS
Take `COc1ccc(Cl)cc1NC(=O)N1CCC(C)CC1`: the “hERG current change (%, negative = inhibition) at 1uM” value was 7.62%.

Turning to `O=C(Nc1ccc(Cl)c(-c2nc3ccccc3[nH]2)c1)c1cccnc1`, the “hERG current change (%, negative = inhibition) at 1uM” value is listed as -16%. For the molecule `Nc1[nH]c(=S)nc2nc(-c3ccccc3)c(-c3ccccc3)nc12`, the “hERG current change (%, negative = inhibition) at 1uM” value was 10.5%. Regarding `COC(=O)c1ccc2c(c1)C(C)(C)C(/C=C/c1ccc(O)cc1)=[N+]2C.[I-]`, the “hERG current change (%, negative = inhibition) at 1uM” value is recorded as -18.6%.

For `Cc1cc(C)cc(N(CC(=O)N2CCC(C)CC2)S(C)(=O)=O)c1`, the “hERG current change (%, negative = inhibition) at 1uM” value is reported as -6.55%. As to `COc1ccc(NC(=O)C2CCN(C(=O)c3cccs3)CC2)cc1OC`, the “hERG current change (%, negative = inhibition) at 1uM” value is recorded as -0.161%. For `O=C(Nc1ccc2c(c1)OCO2)c1cccc2c1C(=O)N(Cc1cccnc1)C2`, the “hERG current change (%, negative = inhibition) at 1uM” value is on record as -6.89%.

Regarding `N#Cc1c2n(c3c(=O)n(Cc4ccccc4Cl)cnc13)CCCC2`, the “hERG current change (%, negative = inhibition) at 1uM” value was -2.62%.

For `CC(=O)c1cnc(Nc2ccccc2)s1`, the “hERG current change (%, negative = inhibition) at 1uM” value came to 13.8%.

As to `COCCSc1nnc(-c2cnccn2)o1`, the “hERG current change (%, negative = inhibition) at 1uM” value is on record as 12.7%. In the case of `CCCN(CCC)CCCNC(=O)Cn1cnc2sc(C)c(S(=O)(=O)N3CCCCC3)c2c1=O`, the “hERG current change (%, negative = inhibition) at 1uM” value is recorded as 11.8%. On to `C=COCCNC(=S)Nc1cccc(Cl)c1`, for which the “hERG current change (%, negative = inhibition) at 1uM” value is 8.15%.

Take `Cc1cc(C)cc(NC(=S)NCCN2CCOCC2)c1`: the “hERG current change (%, negative = inhibition) at 1uM” value amounted to 3.61%. As to `Cn1c(=O)[nH]c(=O)c2c1nc(Br)n2CCSc1ncccn1`, the “hERG current change (%, negative = inhibition) at 1uM” value was 12%. In the case of `CC1(C)CC(O)C(CCC(O)c2ccccc2)C(C)(C)N1` (centres unmarked), the “hERG current change (%, negative = inhibition) at 1uM” value is listed as 11.9%.

For the molecule `O=C(COC(=O)COc1ccc(Cl)cc1)NC1CCCC1`, the “hERG current change (%, negative = inhibition) at 1uM” value is reported as 11.8%. Take `CC(=O)O/N=C(\N)Cc1ccc(-c2csnn2)cc1`: the “hERG current change (%, negative = inhibition) at 1uM” value is 12.5%. `c1ccc2c(Nc3nc4c(s3)CCCC4)cccc2c1`: the “hERG current change (%, negative = inhibition) at 1uM” value worked out at 3.89%. As for `O=C(CSc1ccc(-c2ccc(-n3cccn3)cc2)nn1)Nc1ccc([N+](=O)[O-])cc1`, the “hERG current change (%, negative = inhibition) at 1uM” value was 15%. With `Cc1nc2ccc(NC(=O)COc3ccccc3C)cc2s1` the figure was 8.51%; with `Oc1cc2ccccc2cc1-c1n[nH]c(=S)o1`, 8.88%. On to `O=C(NCC1CCN(C(=O)c2ccc([N+](=O)[O-])cc2)CC1)c1ccc([N+](=O)[O-])cc1`, for which the “hERG current change (%, negative = inhibition) at 1uM” value was -74.6%. For `CCCCNC(=O)c1ccc(C)c(NC(=O)C2=C(C)OCCS2)c1`, the “hERG current change (%, negative = inhibition) at 1uM” value is reported as 22.2%.

For the molecule `COc1cccc(/C=C/C(=O)OC(C)C(=O)Nc2c(C)n(C)n(-c3ccccc3)c2=O)c1` (centres unmarked), the “hERG current change (%, negative = inhibition) at 1uM” value was determined as 7.77%. With `Cc1ccc(NC(=O)CN2CCN(c3ccccn3)CC2)c(Cl)c1` the figure was -0.435%; with `CC1CCN(S(=O)(=O)c2ccc(Oc3ccc([N+](=O)[O-])cc3)cc2)CC1`, -12.7%. As for `CCN(CC(=O)NC(=O)NCc1ccccc1)CC(=O)Nc1cc(Cl)ccc1C`, the “hERG current change (%, negative = inhibition) at 1uM” value is 0.294%.

As to `CCCNC(=O)c1cnc(Sc2ncc(C(F)(F)F)cc2Cl)n1C`, the “hERG current change (%, negative = inhibition) at 1uM” value was -6.83%. With `COC(=O)c1cc(OC)c(OC)cc1NC(=O)Cn1nnc(-c2ccccc2Cl)n1` the figure was -11.8%. In the case of `COc1cc(NC(=O)CN2C(=O)COc3ccc(S(=O)(=O)N4CCCCC4)cc32)cc(OC)c1`, the “hERG current change (%, negative = inhibition) at 1uM” value amounted to 9.14%. For the molecule `CC(=O)N(CCP(=O)(c1ccccc1)c1ccccc1)Cc1ccco1`, the “hERG current change (%, negative = inhibition) at 1uM” value came to 3.84%. On to `O=C(NCCO)C(=O)NCC(c1ccc2c(c1)OCO2)N1CCN(c2ccc(F)cc2)CC1` (centres unmarked), for which the “hERG current change (%, negative = inhibition) at 1uM” value is on record as 11.4%. For the molecule `CCOC(=O)N/N=C\C=C\c1ccco1`, the “hERG current change (%, negative = inhibition) at 1uM” value is reported as 10.7%. For the molecule `Cc1cccc(-c2nnc(SCc3nc4ccccc4[nH]3)n2Cc2ccco2)c1`, the “hERG current change (%, negative = inhibition) at 1uM” value is given as 7.8%. In the case of `Cc1nn(-c2ccccc2)c(-n2cccc2)c1C(=O)O`, the “hERG current change (%, negative = inhibition) at 1uM” value is 7.27%.

Regarding `O=C(Cc1n[nH]c(=O)c2ccccc12)N/N=C/c1cc2c(cc1Cl)OCO2`, the “hERG current change (%, negative = inhibition) at 1uM” value was 15.1%. With `Cc1cc(=O)c(C(=O)O)nn1-c1ccccc1F`, the “hERG current change (%, negative = inhibition) at 1uM” value was 14.8%.

Take `CCCCn1c(N)c(N(CC)C(=O)CSc2nnc(-c3ccco3)n2CC)c(=O)[nH]c1=O`: the “hERG current change (%, negative = inhibition) at 1uM” value is 19.2%.

Consider `CCCCCCC(C)n1[nH]c(=O)c2c(C)cc(=O)[nH]c21` (centres unmarked), for which the “hERG current change (%, negative = inhibition) at 1uM” value is listed as 1.76%.

For `CC(=O)Nc1ccc(S(=O)(=O)N2CCN(C)CC2)cc1`, the “hERG current change (%, negative = inhibition) at 1uM” value is 0.825%. With `Cc1cccc(NC(=O)c2c([N+](=O)[O-])c(C(C)(C)C)nn2C)c1` the figure was 4.04%.

On to `O=C(O)CCSc1nnc(SCC(=O)NCC(F)(F)F)s1`, for which the “hERG current change (%, negative = inhibition) at 1uM” value is listed as 1.24%.

As to `CC(C)Cn1c(N)c(C(=O)COC(=O)c2cc(C(F)(F)F)nc3c(C(F)(F)F)cccc23)c(=O)n(C)c1=O`, the “hERG current change (%, negative = inhibition) at 1uM” value worked out at 7.94%.

Turning to `N/C(Cc1ccccc1Sc1ccccc1)=N\O.O=C(O)/C=C\C(=O)O`, the “hERG current change (%, negative = inhibition) at 1uM” value came to 4.44%. As to `COc1ccc(Cc2nc3c4c(ncn3n2)Oc2c(ccc3ccccc23)C4c2ccc(OC)c(OC)c2)cc1` (centres unmarked), the “hERG current change (%, negative = inhibition) at 1uM” value is 18.3%. Turning to `CCNc1nc(NC(C)(C)C)nc(N(CC)n2cnnc2)n1`, the “hERG current change (%, negative = inhibition) at 1uM” value is 3.91%. With `COc1ccc(NC(=S)N2CCCC2c2ccc(OC)c(OC)c2)cc1` (centres unmarked) the figure was 9.64%; with `CNS(=O)(=O)c1cc(NC(=O)CCCNC(=O)c2ccc(Cl)cc2)ccc1C`, 21.5%; with `CCN(CC)C(=O)COc1ccc(-c2ccccc2)cc1`, -19.7%.

In the case of `O=C(O)CCC(=O)N1CCc2cc(S(=O)(=O)NCc3ccc(Cl)cc3)ccc21`, the “hERG current change (%, negative = inhibition) at 1uM” value was 10.1%.

Take `O=C(Nc1nnc(-c2ccco2)o1)C1CC1`: the “hERG current change (%, negative = inhibition) at 1uM” value is on record as 14.8%.

`CCOc1cccc2sc(N(CCN(CC)CC)C(=O)c3ccc(S(=O)(=O)N4CCCCC4)cc3)nc12.Cl`: the “hERG current change (%, negative = inhibition) at 1uM” value is listed as -31.8%.

As to `O=C(NCc1ccco1)c1ccccc1-c1ccccc1`, the “hERG current change (%, negative = inhibition) at 1uM” value worked out at 2.18%. Consider `O=C(Oc1c(CN2CCOCC2)cc(Cl)c2cccnc12)c1ccc(F)cc1`, for which the “hERG current change (%, negative = inhibition) at 1uM” value is -13.5%. On to `O=C(CCC1CCCN(Cc2ccc(O)c(Cl)c2)C1)NCc1ccccc1F` (centres unmarked), for which the “hERG current change (%, negative = inhibition) at 1uM” value was -5.03%.

As to `COc1ccc(N2CCN(c3ncnc4scc(-c5ccc(F)cc5)c34)CC2)cc1`, the “hERG current change (%, negative = inhibition) at 1uM” value came to 4.67%.
